Source: PubChem BioAssay AID686978 (National Center for Advancing Translational Sciences (NCATS), 2013)
Where “and” joins values, the source holds several entries; their conditions need not be identical. Identical values can stand only once. Screen size: about 420,000 compounds; about 64,000 (15%) were called active. The shares of active, inactive and inconclusive entries below differ from those in the screen. The call rests on the fitted dose curve; in most records, active means well fitted inhibition curve with a large enough effect; inconclusive means small, poorly fitted or top-dose-only effect; inactive means flat fitted curve, though single readings scatter. Where the call is inconclusive, the potency comes from a doubtful curve fit.

Experiment: qHTS for Inhibitors of human tyrosyl-DNA phosphodiesterase 1 (TDP1): qHTS in cells in absence of CPT; further: nearly all actives have a fitted effect of over 55% in size
Conditions: DT40 Tdp1-/- hTDP1 cells, no CPT, ATP luminescence, 48 h; series mostly up to 46.2 µM
Method in brief: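 Camptothecin absent (DMSO only). Human TDP1-complemented DT40 knockout cells, 400 cells/well, 37 °C for minimum 48 hr; ATP measured via CellTiter-Glo, 30 min dark incubation, luminescence.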
Potency means the concentration at half of the fitted maximal effect; tags describe the fitted curve by direction and shape.

Structure (SMILES)	Potency
COc1ccc(Nc2ccc([N+](=O)[O-])cn2)cc1	inconclusive: 20.6 µM [inhibitor, partial curve]
CCOc1ccccc1C(O)C1=CC(=O)c2ccccc2C1=O (stereo not drawn)	inconclusive: 18.4 µM [inhibitor, partial curve]
O=C(CCc1c[nH]c2ccccc12)N1CCN(S(=O)(=O)c2ccc(F)cc2)CC1	inconclusive: 20.6 µM [inhibitor, single point]
COc1ccc(/C=C/C(=O)OCC(=O)Nc2ccc3c(c2)OCO3)cc1	inactive
CCCNC(=O)c1c(CSc2ccc(Cl)cc2)noc1C(=O)NCc1ccccc1	inconclusive: 18.4 µM [inhibitor, single point]
Cc1ccc2sc(N3CCN(CCNC(=O)c4ccco4)CC3)nc2c1C	inconclusive: 29.1 µM [inhibitor, single point]
O=C(CSc1nc2[nH]ncc2c(=O)[nH]1)Nc1ccccc1	inactive
C[C@H](CO)N1C[C@H](C)[C@H](CN(C)Cc2cncnc2)Oc2ncc(C#CC3(O)CCCC3)cc2C1=O	inactive
Cc1nnc2n(c1=O)C(CS(=O)(=O)c1ccccc1)CS2 (stereo not drawn)	inactive
COc1cc(Cl)c(C)cc1NC(=O)CSc1nnc(-c2ccccn2)n1Cc1ccco1	inconclusive: 29.1 µM [inhibitor, single point]
O=C(COc1ccc2c3c(c(=O)oc2c1)CCCC3)NCCCn1ccnc1	inactive
O=C1NC[C@H](CCCCN2CCN(CCC3CCCCC3)C(=O)C2=O)N(CCC2CCCCC2)C1=O	inactive
COc1cccc(CN(C)C(=O)Cc2ccc(OC)c(S(=O)(=O)N3CCOCC3)c2)c1	inactive
O=C(Nc1ccccc1C(=O)NCc1ccco1)NC1CCCCC1	inconclusive: 18.4 µM [inhibitor, partial curve, poor fit]
CCCCNC(=O)C1CCCN1C(=O)Nc1ccccc1 (stereo not drawn)	inactive
Cc1c(/C=N/Nc2ccc(F)cc2)c(O)n(C)c(=O)c1C#N	inconclusive: 18.4 µM [inhibitor, single point]
COCCN1Cc2cccc(C(=O)Nc3ccc(S(=O)(=O)N4CCCCCC4)cc3)c2C1=O	inconclusive: 8.2 µM [inhibitor, partial curve]
O=C(NCCc1nc2ccccc2[nH]1)c1ccc(Cl)c([N+](=O)[O-])c1	inconclusive: 29.1 µM [inhibitor, single point]
CC(C)c1ccc(/C=C/C(=O)NCCCc2ccccc2)cc1	inconclusive: 18.4 µM [inhibitor, single point]
O=C(c1cc2nc(-c3ccco3)cc(C(F)(F)F)n2n1)N1CCCc2ccccc21	inconclusive: 4.11 µM [inhibitor, single point]
O=C(Nc1nnc(-c2ccc(Br)cc2)o1)c1ccco1	inconclusive: 29.1 µM [inhibitor, single point]
CCN(Cc1nc2ccccc2c(=O)[nH]1)Cc1cc(=O)oc2cc(C)c(C)cc12	inconclusive: 23.1 µM [inhibitor, partial curve]

Structure (SMILES)	Potency
CC(C)N=C1NN=C(c2ccc(Cl)c(Cl)c2)CS1	inconclusive: 13 µM [inhibitor, partial curve]
COc1ccccc1C(=O)Nc1ccnn1C1CCN(Cc2cn(C)c3ccccc23)CC1	inconclusive: 29.1 µM [inhibitor, single point]
CC(C)c1ccc(OCC(=O)Nc2c(C(=O)c3ccc(F)cc3)oc3ccccc23)cc1	inactive
Cc1ccc(N2CCN(c3ncccc3[N+](=O)[O-])CC2)c(C)c1	inconclusive: 18.4 µM [inhibitor, single point]
CC(C)C(NC(=O)c1ccccc1NC(=O)c1ccco1)C(=O)NNC(=O)c1ccncc1 (stereo not drawn)	inactive
CCC1(C2CCN(C(=O)c3ccccc3C(C)=O)CC2)NC(=O)N(CCc2scnc2C)C1=O (stereo not drawn)	inactive
COc1ccc(CNC(=O)CN(c2ccc(C(C)C)cc2)S(=O)(=O)c2c(C)noc2C)cc1	inconclusive: 5.8 µM [inhibitor, partial curve]
COc1ccc(S(=O)(=O)c2c(C(=O)c3ccc(C)c(C)c3)cnc3ccc(F)cc23)cc1	active: 6.51 µM
Cc1ccc(NC(=O)c2ccc3c(c2)N(CC(=O)N2CCCCC2)C(=O)C(C)(C)O3)cc1	inconclusive: 16.4 µM [inhibitor, single point]
CSc1cc(C)n(-c2ccc(Cl)cc2)c(=S)c1C(C)=O	inconclusive: 25.9 µM [inhibitor, partial curve, poor fit]
O=C(COC(=O)Cc1c(Cl)cccc1Cl)NC1CCCC1	inconclusive: 18.4 µM [inhibitor, single point]
Cc1ccc(Nc2c(-c3ccsc3)nc3c(C)cccn23)cc1	inconclusive: 29.1 µM [inhibitor, single point] and inconclusive: 20 µM [inhibitor, single point]
CN(C)c1cccc(C(=O)N/N=C/c2ccoc2)c1	inconclusive: 29.1 µM [inhibitor, single point]
CC(=O)Oc1ccc(Cl)cc1CN(C(C)=O)C1CCCCC1	inconclusive: 14.6 µM [inhibitor, partial curve, poor fit]
CN(C1CCCCC1)S(=O)(=O)c1ccc(NC(=O)CCC(=O)O)cc1	inactive
CC(C)CC(C)c1cc(N)nc2nc3ccccc3n12 (stereo not drawn)	inconclusive: 23.1 µM [inhibitor, single point]
CCN1CC(CN(C)Cc2nc(-c3ccc(C(F)(F)F)cc3)oc2C)CC1=O (stereo not drawn)	inconclusive: 29.1 µM [inhibitor, single point]
O=C1OCCN1C(=O)[C@H]1[C@H](c2ccc([N+](=O)[O-])cc2)C(c2cccc(Cl)c2)=NN1c1ccc(Br)cc1	inconclusive: 20.6 µM [inhibitor, single point]
Cc1ccc(N/N=C(\Cc2nc3ccccc3[nH]2)c2ccccc2)cc1	active: 0.651 µM
OCC1OC(n2cnc3c(=S)nc[nH]c32)CC1O (stereo not drawn)	inactive
COc1ccc(C2CC2/C(=N/O)c2ccccc2)cc1 (stereo not drawn)	active: 18.4 µM
